{"source": "PubChem BioAssay AID463173", "about": "(ICCB-Longwood Screening Facility, Harvard Medical School, 2010)", "note": "The whole screen tested about 52,000 compounds, of which about 4,300 (8.3%) were called active. No stated cut-off is given here; in the data, active means survival mostly below about 52% (no sharp cut-off); inactive means mostly above about 56%. The list shows a part of the results."}
{"tested_on": "DeltatarO mutant", "assay": "growth inhibition of S. aureus wild type versus tarO mutant, primary screen, teichoic acid synthesis inhibitors, RN4220, OD600 (AID 463173)", "conditions": "OD600, 18 h, hits give low values, screened at 18.75 µg/mL (by protocol)"}
{"compound": "CCOC(=O)N1CCc2c(sc3c2c(=O)n(Cc2ccccc2)c(=O)n3CC(=O)Nc2ccc(F)cc2)C1", "survival": "inactive: 88%"}
{"compound": "CNC(=O)CN1C(=O)COc2ccc(S(=O)(=O)N3CCCCCC3)cc21", "survival": "inactive: 91%"}
{"compound": "COc1ccc(CNC(=O)c2cnn3c2NC(c2ccc(C)cc2)CC3C(F)F)cc1OC", "note": "(stereo unspecified)", "survival": "inactive: 86%"}
{"compound": "CCN(CC)S(=O)(=O)c1ccc(OC)c(NC(=O)c2sc3ccccc3c2Cl)c1", "survival": "inactive: 83%"}
{"compound": "Cc1ccc2c(c1)c1c(c(=O)n(Cc3ccccc3)c(=O)n1Cc1ccccc1F)n2C", "survival": "inactive: 67%"}
{"compound": "CCOc1ccc(N2CC(NC(=O)c3ccc(Cl)cc3)CC2=O)cc1", "note": "(stereo unspecified)", "survival": "inactive: 73%"}
{"compound": "CCOc1ccc(CNC(=O)Cn2c(=O)c3cccn3c3cccnc32)cc1", "survival": "inactive: 70%"}
{"compound": "COc1ccc2c(c1)c(N1CCCC1=O)c(C(=O)Nc1ccc(OC)c(Cl)c1)n2C", "survival": "inactive: 78%"}
{"compound": "CC(=O)c1cccc(NS(=O)(=O)c2c(C(=O)N3CCCCCC3)c(C)n(C)c2C)c1", "survival": "inactive: 76%"}
{"compound": "COc1ccc(NC(=O)[C@H](Cc2ccccc2)N2Cc3ccccc3C2=O)cc1OC", "survival": "inactive: 81%"}
{"compound": "COc1cccc(NC(=O)Cn2c(=O)n(Cc3ccc4c(c3)OCO4)c(=O)c3oc4ccccc4c32)c1", "survival": "inactive: 71%"}
{"compound": "Cc1ccc(-n2ncc(C(=O)NCCN3CCN(C)CC3)c2C2CCN(C(=O)OC(C)(C)C)CC2)cc1C", "survival": "inactive: 70%"}
{"compound": "COc1ccc(-n2c(SCCC(C)C)nc3sc4c(c3c2=O)CC(C(C)C)OC4)cc1", "note": "(stereo unspecified)", "survival": "active: 30%"}
{"compound": "CC1CCC(NC(=O)c2ccc(CSc3nc4ccncc4n3Cc3ccc(F)cc3)cc2)CC1", "note": "(stereo unspecified)", "survival": "inactive: 59%"}
{"compound": "Cc1nn(CCCC(=O)Nc2ccccc2C(F)(F)F)c(=O)c2nn(-c3ccccc3)c(C)c12", "survival": "inactive: 84%"}
{"compound": "Cc1nn2c(-c3ccccc3)cc(-c3ccccc3)nc2c1-c1ccc(Cl)cc1", "survival": "inactive: 78%"}
{"compound": "COc1ccc(C(CC(=O)Nc2ncccc2C)N2Cc3ccccc3C2=O)cc1OC", "note": "(stereo unspecified)", "survival": "inactive: 81%"}
{"compound": "O=C(Nc1ccccc1)c1cccc(N2CCCS2(=O)=O)c1", "survival": "inactive: 113%"}
{"compound": "Cc1cc(C)n2nc(CNC(=O)c3ccc(Cl)cc3)nc2n1", "survival": "inactive: 122%"}
{"compound": "CCc1ccc(NC(=O)c2cc(S(=O)(=O)NC3CCCCCC3)ccc2F)cc1", "survival": "inactive: 102%"}
{"compound": "Cc1nn(-c2ccccc2)c2c1N(CC(=O)N1CCN(c3ccc(Cl)cc3)CC1)C(=O)CS2", "survival": "inactive: 90%"}
{"compound": "Cc1nn(-c2ccccc2)c2c1N(CCCC(=O)NC(C)c1ccccc1)C(=O)CS2", "note": "(stereo unspecified)", "survival": "inactive: 96%"}
{"compound": "Cc1ccc(S(=O)(=O)c2cn(Cc3ccccc3)c3cc(N4CCOCC4)c(F)cc3c2=O)cc1", "survival": "inactive: 98%"}
{"compound": "O=C(NCCNC1CCCC1)c1ccco1", "survival": "inactive: 94%"}
{"compound": "CCc1ccc(CNC(=O)CCn2nc(C)c3c(C)n(-c4ccccc4)nc3c2=O)cc1", "survival": "inactive: 55%"}
{"compound": "CCOC(=O)c1c(C)nc2c(c1C)c(=O)oc1ccccc12", "survival": "inactive: 94%"}
{"compound": "CCN1CCN(CCCNC(=O)Cn2c(-c3cccs3)cc3cc(Cl)ccc32)CC1", "survival": "inactive: 94%"}
{"compound": "COc1ccc(-c2nc(CNC(=O)Nc3ccccc3)c(C)o2)c(OC)c1", "survival": "inactive: 90%"}
{"compound": "O=c1ccc(-c2ccccc2)nn1Cc1c(F)cccc1Cl", "survival": "inactive: 55%"}
{"compound": "CCn1ccc2c(OCC(=O)Nc3ccc(OC)cc3OC)cccc2c1=O", "survival": "active: 20%"}
{"compound": "COc1ccccc1CNC(=O)CCc1c(C)c2cc3c(C)coc3cc2oc1=O", "survival": "inactive: 62%"}
{"compound": "CCn1cc(C(=O)NCCC(C)C)c(=O)c2cc(S(=O)(=O)N(C)C3CCCCC3)ccc21", "survival": "inactive: 66%"}
{"compound": "CCC(=O)N1c2ccccc2CC1C(=O)NCCCN1CCN(c2ccc(OC)cc2)CC1", "note": "(stereo unspecified)", "survival": "inactive: 86%"}
{"compound": "CCCCOc1ccc(CNC(=O)c2cnc3sc(N4CCCC4)nn3c2=O)cc1", "survival": "inactive: 113%"}
{"compound": "Cc1c(Cl)cccc1NC(=O)C(=O)NCCc1csc2nc(-c3ccccc3F)nn12", "survival": "active: 6%"}
{"compound": "CC1CCCCN1c1cc2c(cc1F)c(=O)c(S(=O)(=O)c1ccccc1)cn2Cc1ccccc1", "note": "(stereo unspecified)", "survival": "inactive: 107%"}
{"compound": "O=C(Cn1c(-c2cccs2)cc2cc(F)ccc21)NCCc1ccc(Cl)cc1", "survival": "inactive: 91%"}
{"compound": "O=S(=O)(Nc1ccc(O)c(Sc2nc3ccccc3s2)c1)c1cc(Cl)ccc1Cl", "survival": "active: -8%"}
{"compound": "COc1cccc(-c2nc(CS(=O)(=O)CC(=O)N3CCN(c4ccccc4)CC3)c(C)o2)c1", "survival": "inactive: 63%"}
{"compound": "CC(=O)Nc1ccc2nc(NC(=O)c3cc4ccccc4o3)sc2c1", "survival": "inactive: 102%"}
{"compound": "Cc1ccc(Cl)cc1N1CCN(C(=O)c2ccc3c(Cl)c4c(nc3c2)CCCC4)CC1", "survival": "active: 31%"}
{"compound": "O=C(Cn1c(=O)ccc2cc(S(=O)(=O)N3CCCC3)ccc21)Nc1ccccc1", "survival": "inactive: 57%"}
{"compound": "CC(C)CCNC(=O)c1cnc2sc(N3CCCCCC3)nn2c1=O", "survival": "inactive: 78%"}
{"compound": "Cc1oc(CC(C)C)c(CN2CCOCC2)c1C(=O)O", "survival": "inactive: 79%"}
{"compound": "COc1ccc(-n2nc3c(N4CCC(C(=O)N5CCC(C)CC5)CC4)nnc(C)c3c2C)cc1", "survival": "inactive: 91%"}
{"compound": "COc1ccc(CNC(=O)c2ccc(Cn3c(=O)c4cccn4c4cccnc43)cc2)c(OC)c1", "survival": "active: 58%"}
{"compound": "Cc1ccc(O)c(NC(=O)c2cc(-c3ccc(F)cc3)no2)c1", "survival": "inactive: 77%"}
{"compound": "Cc1nc2c3cccnc3nn2c(C)c1CCC(=O)NCc1ccccc1", "survival": "inactive: 110%"}
{"compound": "CCN(CC)S(=O)(=O)c1ccc2c(c1)nc(CN(C)C(=O)Nc1ccc(C)c(Cl)c1)n2C", "survival": "inactive: 86%"}
{"compound": "COc1ccc(Nc2ncc(C(=O)Nc3cccc(Cl)c3)c3ccccc23)cc1", "survival": "inactive: 53%"}
{"compound": "CCc1ccc(NC(=O)C(=O)NCC(c2ccc3c(c2)OCO3)N2CCN(C)CC2)cc1", "note": "(stereo unspecified)", "survival": "inactive: 94%"}
{"compound": "Cc1ccc(OCC(=O)NCC2(N3CCN(C)CC3)CCCCC2)cc1", "survival": "inactive: 76%"}
{"compound": "NC(=O)C1CCN(c2csc3ccc(F)cc3c2=O)CC1", "survival": "inactive: 101%"}
{"compound": "CCn1c(CN2CCN(C)CC2)nc2cc(NC(=O)c3ccc([N+](=O)[O-])cc3)ccc21", "survival": "inactive: 90%"}
{"compound": "COc1ccc(N2CCN(C(CNC(=O)c3ccc(OC)c(OC)c3)c3cccnc3)CC2)cc1", "note": "(stereo unspecified)", "survival": "inactive: 72%"}
{"compound": "CCOC(=O)N[C@H](Cc1c[nH]c2ccccc12)C(=O)Nc1cccc(Cl)c1", "survival": "inactive: 107%"}
